The values that follow come from ChEMBL document CHEMBL4888484, “Replenishing the malaria drug discovery pipeline: Screening and hit evaluation of the MMV Hit Generation Library 1 (HGL1) against asexual blood stage Plasmodium falciparum ,using a nano luciferase reporter read-out” (2022).

The campaign covered roughly 150,000 compounds. About 540 (0.36%) showed an effect of 50% or more. The list shows a part of the results.

For this assay, the system named is Plasmodium falciparum. Briefly: Primary screen in NF54 nanoGlo assay, in single point, at 2uM, 72h; a lower Z score goes with more inhibition. Format: functional, Erythrocyte. Conditions: timepoint 72 hour.
Usually % Inhibition stands for the drop in the measured response relative to a control, in per cent. On to `Cc1nc([C@H](C)Nc2ncnc3[nH]cnc23)cs1`, for which the “% Inhibition” value is -10% and the Z score is 1.43.

As for `C[C@]1(C(N)=O)CCN(C(=O)c2ccc3c(c2)CCCC3=O)C1`, the “% Inhibition” value is listed as 18% and the Z score is given as -2.25.

With `C=C(C)C[C@H](C)C(=O)NCC12COCCN1CCOC2`, the “% Inhibition” value is -10% and the Z score was found to be 1.15.

As for `C=CCN(CC=C)C(=O)Cc1ccccc1C`, the “% Inhibition” value came out at 2% and the Z score is reported as -0.42.

With `CCCCOc1ccc(NC(=O)N2CCCN(Cc3cnn(CCC)c3)CC2)c(C)c1`, the “% Inhibition” value was -6% and the Z score is on record as 0.58.

As for `Cc1c(C(=O)N2CCN(c3ccccc3F)CC2)cccc1-n1nnc2cccnc21`, the “% Inhibition” value was determined as 1% and the Z score is -0.2.

`CC1CCC(O)(CN2CCC[C@H]2C(=O)N(C)C)CC1` (stereo partly drawn): the “% Inhibition” value is -1% and the Z score stood at 0.19.

As for `CCC1CN(C(=O)C(C)NC(C)=O)CC1O` (stereo not drawn), the “% Inhibition” value was -1% and the Z score is listed as 0.15.

In the case of `CC[C@@H](C(=O)Nc1c(-c2ccc3c(c2)OCO3)n[nH]c1C1CC1)c1ccccc1`, the “% Inhibition” value is -3% and the Z score is 0.57.

In the case of `Cc1cc(Br)cc(Cl)c1NC(=O)C(C)C`, the “% Inhibition” value worked out at 1% and the Z score is reported as -0.19.

With `Cc1nnc(NC(=O)NC2CCN(Cc3ccccc3)CC2)s1`, the “% Inhibition” value is reported as -6% and the Z score was 1.01.

For the compound `O=C(O)c1ccccc1-n1nc(C2CCCC2)nc1CN1CCCCC1=O`, the “% Inhibition” value was -2% and the Z score was found to be 0.24.

In the case of `Cc1nnc2c(N3CCC(NC(=O)[C@H](C)Oc4ccccc4)CC3)nccn12`, the “% Inhibition” value is -8% and the Z score is listed as 1.57.

Regarding `Cc1cccnc1C[C@H](C)n1cc(-c2ncc[nH]2)nn1`, the “% Inhibition” value is reported as 2% and the Z score was -0.33.

On to `CCCc1cc(C(=O)N[C@@H]2c3ccccc3C[C@H]2NC(C)=O)[nH]n1`, for which the “% Inhibition” value is reported as -1% and the Z score is reported as 0.11.

Take `COC[C@H](C)N(Cc1cccc(F)c1)C(=O)c1ccc(-n2cnnc2)nc1`: the “% Inhibition” value turned out to be 6% and the Z score was -0.82.

In the case of `Cc1nc(C)c(C(=O)NC2CCCC2)o1`, the “% Inhibition” value is -13% and the Z score was determined as 1.7.

With `CCC1(NC(=O)c2[nH]nc(C(F)(F)F)c2C)CCC1`, the “% Inhibition” value was -8% and the Z score came out at 0.94.

Take `COc1ccccc1S(=O)(=O)N1CCC(=C2CC2)CC1`: the “% Inhibition” value is reported as -19% and the Z score amounted to 2.16.

As to `Cc1cccc(C(=O)N2CCC[C@@]3(CCN(Cc4sc(C)nc4C)C3)C2)c1`, the “% Inhibition” value is recorded as -9% and the Z score is reported as 1.46.

For the compound `CC1(C)C(=O)NCCN1C(=O)c1cccs1`, the “% Inhibition” value was -5% and the Z score is 1.02.

Turning to `Cc1cc(=O)c(C(=O)N2CCN(c3cccc(Cl)c3)CC2)c(CC2CCCC2)n1C`, the “% Inhibition” value is -2% and the Z score is given as 0.21.

Turning to `CCCC1(CCC)NC(=O)N(CC(=O)NCC(=O)Nc2ccccc2CC)C1=O`, the “% Inhibition” value is reported as 6% and the Z score is recorded as -1.18.

As to `CC(C)N(Cc1ccon1)CC(C)(C)O`, the “% Inhibition” value is listed as -5% and the Z score is recorded as 0.74.

Regarding `Cc1cccc(CC(=O)N[C@H](c2cccnc2)C2CCOCC2)c1`, the “% Inhibition” value is -1% and the Z score is reported as 0.11.

Consider `FC(F)(F)c1cc(NCC2CC2)ncn1`, for which the “% Inhibition” value is -8% and the Z score stood at 1.26.

As to `CCc1ncc(C(=O)N2CCC[C@H]2C(=O)N2CCCCC2)cn1`, the “% Inhibition” value is -11% and the Z score is 1.4.

As for `O=C(NCC1(O)CCOCC1)c1ccc(Cl)cn1`, the “% Inhibition” value is given as 29% and the Z score is recorded as -3.22.

As for `C[C@@H](N)c1c(Cl)ccc(F)c1Cl`, the “% Inhibition” value was 5% and the Z score is given as -0.74.

For the compound `N#Cc1ccccc1-c1ccccc1C(=O)N[C@H](CO)CN1CCCCC1`, the “% Inhibition” value is reported as -3% and the Z score was 0.49.

As for `COc1ccc(Cc2nc(NC(=O)CCNc3ncccn3)n[nH]2)cc1`, the “% Inhibition” value is given as -9% and the Z score turned out to be 1.1.

Regarding `CCCn1nc(C)c(Cn2ccnc2[C@H]2CCOC(C)(C)C2)c1C`, the “% Inhibition” value is -15% and the Z score was 1.37.

On to `OC[C@@H]1C[C@H](O)CN1C[C@H](O)c1ccc(-c2ccc(Br)cc2)cc1`, for which the “% Inhibition” value was -1% and the Z score was determined as 0.24.

With `Cc1ccc(OC2CCN(C(=O)CCC3CCCC3)CC2)nn1`, the “% Inhibition” value was -8% and the Z score is listed as 1.51.

As to `O=S(=O)(Nc1cncc(N2CCCC2)n1)c1cncc(F)c1`, the “% Inhibition” value is -6% and the Z score is 0.96.

Consider `Cc1nc(C(=O)N(C)CCCN(C)C(=O)OC(C)(C)C)c(C)o1`, for which the “% Inhibition” value is listed as -3% and the Z score stood at 0.44.

Turning to `COCC(C)(C)NC(=O)N[C@H](C)C(O)(c1ccccc1)c1ccccc1`, the “% Inhibition” value was determined as 0% and the Z score came out at 0.07.

In the case of `O=C(C1NCCCC1c1ccccc1)N1CCN(C2CCOC2)CC1` (stereo not drawn), the “% Inhibition” value is on record as -18% and the Z score is listed as 1.97.

Regarding `COCc1ccc(C(=O)N[C@@H](C)CN2CCCCC2)o1`, the “% Inhibition” value was -18% and the Z score is 2.77.

Take `O=S1(=O)NC(CN[C@H]2CCc3ncnn3C2)=Nc2ccccc21`: the “% Inhibition” value is on record as -5% and the Z score is 1.05.

`c1cn(-c2ccc(-n3ccnc3)nn2)cn1`: the “% Inhibition” value is given as -10% and the Z score is reported as 1.29.

Take `COc1cccc(CN2CCC[C@H](Cn3c(C)cnc3C3CCOCC3)C2)c1`: the “% Inhibition” value is 2% and the Z score is given as -0.23.

Take `Cn1cc(CCN=C(N)N2CCN(c3ccc(F)cc3)CC2)cn1`: the “% Inhibition” value is recorded as -14% and the Z score is listed as 1.59.

For `Cn1c(CN2CCCC(C3(C)NC(=O)NC3=O)C2)nc2ccccc21` (stereo not drawn), the “% Inhibition” value is reported as -10% and the Z score is 1.62.
